Laboratory results published in PubChem BioAssay AID1508623 (National Center for Advancing Translational Sciences (NCATS), 2021).
About 450 (0.94%) of roughly 48,000 compounds were called active. This list was built around the results that the source calls inconclusive (neither active nor inactive); the mix of calls is not that of the screen. Calls follow the shape of the dose curve; as a rule, active = well fitted inhibition curve with a large enough effect; inconclusive = small, poorly fitted or top-dose-only effect; inactive = no such curve, though single readings can be large or run the other way. Potencies beside an inconclusive call are fits to weak or partial responses and may not hold up.

Assay: Primary qHTS for Identification of Small Molecule Inhibitors of Huntingtin Promoter Activity; also: nearly all actives have a fitted effect of over 50% in size
Details: HEK293 HTT promoter firefly luciferase reporter (activity 0% = vehicle and -100% = no light), 24 h; activity change, negative = inhibition: at 57.5 µM (top of the series)
How it was run: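 HEK293 Fluc reporter, 2,500 cells/well, 24 h pre-culture; cpds up to 57.5 uM final, 24 h 37 degrees C; Dual-Glo, 10 min RT; normalized vehicle = 0%, zero RLU = -100%.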
Potency is read from the fitted curve at half-maximal effect; tags tell the direction and shape of the fitted curve.

SMILES	activity change, negative = inhibition	Potency
CSc1ccc(CCNC(=O)Cn2ncc3c(=O)oc4ccc(C)cc4c32)cc1	inactive: 0.0125%	–
O=C(O)c1cn(C2CC2)c2cc(Cl)c(F)cc2c1=O	inactive: 12.1%	–
CCOC(=O)c1cccc(Nc2ccc3cc(S(=O)(=O)N4CCCCC4)ccc3n2)c1	–	inconclusive: 39.8 µM [inhibitor, single point]
CCCN1CCCc2cc(CN(CCCN3CCOCC3)C(=O)Nc3ccc(CC)cc3)ccc21	inactive: -16.2%	–
Cc1ccc(C)c(NC(=O)Cn2c(=O)n(CCC(=O)NCc3ccc4c(c3)OCO4)c(=O)c3ccccc32)c1	inactive: 1.64%	–
CCCCn1c(=O)c2oc3ccccc3c2n(CC(=O)Nc2cccc(Cl)c2)c1=O	inactive: -2.48%	–
Cc1ccc([N+](=O)[O-])cc1S(=O)(=O)N(C)N=Cc1cnc2ccc(Br)cn12	–	inconclusive: 0.0544 µM [inhibitor, full curve]
Cc1nnc(N2CCN(C(=O)Nc3cccc(C(F)(F)F)c3)CC2)c2nn(-c3ccccc3)c(C)c12	inactive: -21.8%	–
Cc1cccc(NC(=O)CN(c2ccc(C(C)C)cc2)S(=O)(=O)c2c(C)nn(C)c2C)c1C	–	inconclusive: 39.8 µM [inhibitor, single point]
CCOC(=O)C1CCN(S(=O)(=O)c2cc(-c3onc(C)c3C)ccc2C)CC1	–	inconclusive: 39.8 µM [inhibitor, single point]
CC(=O)N1CCCc2cc(S(=O)(=O)N3CCC(C(=O)N(Cc4ccccc4)C(C)C)CC3)ccc21	–	inconclusive: 22.4 µM [inhibitor, single point]
Cn1cc(-c2ccc3nnc(C(F)(F)c4ccc5ncccc5c4)n3n2)cn1	inactive: 2.98%	–
CCOc1ccc(NC(=O)c2cc3sc(Cl)cc3n2CC)cc1	inactive: -15.8%	–
c1ccc2[nH]c(-c3cscn3)nc2c1	–	inactive
Cc1ccc(-c2cc(NC(=O)c3ccccc3Cl)on2)cc1	inactive: 30.3%	–
CCOc1cc(CNS(=O)(=O)c2ccc3c(c2)CC(=O)N3C)cc(OCC)c1OCC	–	inconclusive: 0.251 µM [inhibitor, full curve, poor fit]
O=C(Nc1ccc(C(=O)N2CCN(c3ccc(F)cc3)CC2)cc1)c1nsc2ccccc12	–	inconclusive: 39.8 µM [inhibitor, single point]
COc1ccc(OCc2ccc(-c3nc(C#N)c(N4CCN(C)CC4)o3)o2)cc1	–	inconclusive: 25.1 µM [inhibitor, partial curve, poor fit]
CCC1CN(C(=O)NCc2cccc(OC)c2)c2cc(Cl)ccc2O1 (stereo not given)	inactive: -20.6%	–
CCCCC1CCC(C(=O)N2CC(=O)Nc3ccc(F)cc3C2c2ccc(F)cc2)CC1 (stereo not given)	–	inconclusive: 25.1 µM [inhibitor, partial curve, poor fit]
